Out of some 52,000 compounds screened, about 1,700 (3.3%) were called active. No stated cut-off is given here; in the data, active means survival mostly below about 52% (no sharp cut-off); inactive means mostly above about 56%. This is one part of the list.
Tested on: Wild type
Test: S. aureus survival, RN4220 and DeltatarO strains – OD600, teichoic acid synthesis inhibitors, primary screen (AID 463173)
Conditions: S. aureus RN4220 wild type/DeltatarO growth, OD600, 18 h, stronger effect = lower value, screened at 18.75 µg/mL (by protocol)

Structure (SMILES)	survival
Fc1ccccc1Cc1cn2cc(-c3ccc(Cl)cc3)nc2s1	inactive: 77%
Cc1cccc(OC2CCS(=O)(=O)C2)c1 (stereo unspecified)	inactive: 107%
COc1ccccc1NC(=O)c1oc2ccccc2c1NC(=O)c1cccc(OC)c1OC	inactive: 44%
CC(C)Nc1nc(Cl)nc(NNC(=O)C(C)Oc2ccccc2)n1 (stereo unspecified)	inactive: 103%
CCOC(=O)C1CCC(CN(Cc2ccccc2)S(=O)(=O)c2ccc(Br)cc2)CC1 (stereo unspecified)	inactive: 77%
Cc1ccccc1Nc1c(-c2cc(Br)ccc2F)nc2ccccn12	inactive: 136%
CCOc1ccc(-c2cc(C(=O)Oc3ccc(C#N)cc3)no2)cc1	inactive: 77%
COc1ccc(/C=C/c2nc(C#N)c(NCc3ccc(F)cc3)o2)cc1OC	inactive: 103%
Cc1cccc(/C=C(\C#N)c2nc3ccccc3c(=O)[nH]2)c1	inactive: 85%
COc1cc(NC(=O)CCS(=O)(=O)c2ccc3c(c2)CC(=O)N3C)cc(OC)c1OC	inactive: 89%
O=C(CCS(=O)(=O)c1ccccc1)N(Cc1cccnc1)c1nc2ccc(Cl)cc2s1	inactive: 73%
COc1ccc(N2CCN(CCCNC(=O)c3cc(Nc4ccc(OC)cc4OC)nc4ccccc34)CC2)cc1	inactive: 72%
CCCN1Cc2cccc(C(=O)Nc3ccc(C(C)=O)cc3)c2C1=O	inactive: 89%
Cc1cccc(-n2c(=O)c3c(c4cc(C)ccc4n3C)n(CC(=O)N3CCCC3)c2=O)c1	inactive: 120%
COc1cccc(C(=O)c2c(N)c(-c3nc(-c4ccccc4)cs3)c3ccccn23)c1	inactive: 98%
Cc1cc(C)nc(SCC(=O)Nc2ccc(N3CCOCC3)cc2)n1	inactive: 108%
CCOc1ccc(N(CC)S(=O)(=O)N2CCCC(C(=O)Nc3ccc(C(C)=O)cc3)C2)cc1 (stereo unspecified)	inactive: 94%
N#CC(C#N)C(CC(=O)c1cccs1)c1ccccc1 (stereo unspecified)	inactive: 108%
O=C(CN1C(=O)COc2ccccc21)NCCc1ccc(Cl)cc1	inactive: 73%

Structure (SMILES)	survival
CCc1ccc(-n2c(=O)c3c4c(sc3n(CC(=O)N3CCCCC3CC)c2=O)CCC4)cc1 (stereo unspecified)	inactive: 68%
CCNC(=S)N1CCC(C(=O)c2ccc3c(c2)OCCO3)CC1	inactive: 97%
O=C(NC1CC2CCC(C1)N2Cc1nnnn1Cc1ccco1)NC12CC3CC(CC(C3)C1)C2 (stereo unspecified)	inactive: 108%
Cc1c(C(=O)Nc2cccc(Cl)c2)sc2nc3n(c(=O)c12)N=C(c1cccc(Br)c1)CS3	inactive: 72%
Cc1ccc(NC(=O)Cn2c(=O)n(Cc3nc(C)no3)c(=O)c3ccccc32)c(Cl)c1	inactive: 78%
Cc1cccc(C)c1OCCCn1c(CCNC(=O)C2CCCCC2)nc2ccccc21	active: 28%
Cc1c(CCC(=O)NCCc2ccc(Cl)cc2)c(=O)oc2c(C)c(O)ccc12	inactive: 93%
CCOc1ccccc1NC(=O)c1nc(SC(C)C)ncc1Cl	inactive: 117%
CCc1ccc(NC(=O)CN2C(=O)C(c3ccc(Cl)cc3)=NC23CCCCC3)cc1	inactive: 81%
Cc1c(CNC2CCCCC2)c(C(=O)O)c(C)n1Cc1cccc(Cl)c1	inactive: 89%
COc1ccc(CNC(=O)c2ccc(N3CCCC3)c(NC(=O)NCc3ccc(C)cc3)c2)cc1	inactive: 75%
Cc1nn2c(-c3cccc(NC(=O)c4ccccc4)c3)nnc2c2ccccc12	inactive: 85%
COc1ccc(-c2cn3c(n2)sc2cc(C(=O)Nc4ccc(C)c(C)c4)ccc23)cc1	inactive: 86%
Cc1cccc(N2CCN(C(=O)CCc3nnc4n(CC(C)C)c(=O)c5ccccc5n34)CC2)c1C	inactive: 86%
COc1ccc(-c2cc(C)no2)cc1S(=O)(=O)N1CCOc2ccccc21	inactive: 80%
CC(C)N(C=O)C1(C(=O)NC2CCCCC2)CCCCC1	inactive: 103%
O=C(Cc1ccccc1)N(Cc1cccnc1)c1nc2c(F)cc(F)cc2s1	inactive: 65%
CCc1ccccc1NC(=O)CN(Cc1ccccc1)S(=O)(=O)c1ccc(Br)cc1	inactive: 66%
O=C(Nc1cc(Cl)cc(Cl)c1)c1ccc(F)c(S(=O)(=O)N2CCc3ccccc32)c1	inactive: 83%

Structure (SMILES)	survival
Cc1cccc(OC(=O)CSc2nnc(CNC(=O)c3ccccc3)o2)c1C	inactive: 87%
O=C(Nc1ccc(F)cc1)c1oc2ccccc2c1NC(=O)C12CC3CC(CC(C3)C1)C2	inactive: 80%
CCOC(=O)c1c(C)oc2ccc(N(C(=O)Oc3ccccc3)S(=O)(=O)c3ccc(CC)cc3)cc12	inactive: 74%
CC(C)c1ccc(OCC(=O)NC(Cc2c[nH]c3ccccc23)C(=O)O)cc1 (stereo unspecified)	inactive: 63%
CCOC(=O)c1c(C)[nH]c(C)c1S(=O)(=O)N1CCC(C(=O)N2CCN(c3ccccc3F)CC2)CC1	inactive: 68%
COc1cccc(NC(=O)CSC2=Nc3ccccc3C3=NC(CC(=O)NC4CCCCC4)C(=O)N23)c1 (stereo unspecified)	inactive: 80%
CCn1cnc2sc3c(c2c1=O)CCCC3	inactive: 107%
CCc1nnc(SCc2cc(C)ccc2C)c2cc3sc(C)cc3n12	inactive: 78%
COc1ccc(NC(=O)C(C)n2nc(-c3ccc(C)c(C)c3)ccc2=O)cc1OC (stereo unspecified)	inactive: 99%
COc1ccc(C2CC(=O)c3cc(-c4nc(-c5ccc(Cl)cc5)c(C)s4)c(=O)[nH]c3C2)cc1 (stereo unspecified)	inactive: 71%
Cc1ccc2c(c1)-c1cc(C)nn1C(c1cc(Br)ccc1O)N2 (stereo unspecified)	inactive: 131%
COc1cc(OC)c(OC)cc1/C=C/c1nc2cc3ccccc3cc2c(=O)n1-c1ccc(F)cc1F	inactive: 78%
Cc1ccc(-n2c(SCc3cccc(F)c3)nc3[nH]ncc3c2=O)cc1C	inactive: 89%
COC(=O)c1ccc2c(=O)n(CCCCCC(=O)NCc3ccc(Cl)cc3)c(=O)[nH]c2c1	inactive: 91%
CCOC(=O)c1nn(-c2ccccc2)c(=O)c(C#N)c1C	inactive: 97%
Cc1ccc2ncc(C(=O)Nc3ccc(F)cc3F)c(=O)n2c1	inactive: 89%
O=S(=O)(Nc1nc2n(n1)C(c1ccc(F)cc1)C=C(c1ccccc1)N2)c1ccccc1 (stereo unspecified)	inactive: 74%
Cc1cc(NC(=O)CCS(=O)(=O)c2cc3c4c(c2)CCN4C(=O)CC3)ccc1Br	inactive: 128%

— PubChem BioAssay AID463173 (ICCB-Longwood Screening Facility, Harvard Medical School, 2010)
